# Measured values from PMC4336329 (PLoS ONE, 2015).
# In all, about 310,000 compounds went through this assay and about 2,200 (0.71%) showed an effect of 50% or more. The effect is printed as a negative number. Some of the results follow.
# Molecular target: human ether-à-go-go-related gene (hERG) potassium channel (human, UniProt Q12809)
# Assay: primary screen, population patch clamp on CHO cells stably expressing hERG
# Sequence of human ether-à-go-go-related gene (hERG) potassium channel (Q12809 whole entry, looked up): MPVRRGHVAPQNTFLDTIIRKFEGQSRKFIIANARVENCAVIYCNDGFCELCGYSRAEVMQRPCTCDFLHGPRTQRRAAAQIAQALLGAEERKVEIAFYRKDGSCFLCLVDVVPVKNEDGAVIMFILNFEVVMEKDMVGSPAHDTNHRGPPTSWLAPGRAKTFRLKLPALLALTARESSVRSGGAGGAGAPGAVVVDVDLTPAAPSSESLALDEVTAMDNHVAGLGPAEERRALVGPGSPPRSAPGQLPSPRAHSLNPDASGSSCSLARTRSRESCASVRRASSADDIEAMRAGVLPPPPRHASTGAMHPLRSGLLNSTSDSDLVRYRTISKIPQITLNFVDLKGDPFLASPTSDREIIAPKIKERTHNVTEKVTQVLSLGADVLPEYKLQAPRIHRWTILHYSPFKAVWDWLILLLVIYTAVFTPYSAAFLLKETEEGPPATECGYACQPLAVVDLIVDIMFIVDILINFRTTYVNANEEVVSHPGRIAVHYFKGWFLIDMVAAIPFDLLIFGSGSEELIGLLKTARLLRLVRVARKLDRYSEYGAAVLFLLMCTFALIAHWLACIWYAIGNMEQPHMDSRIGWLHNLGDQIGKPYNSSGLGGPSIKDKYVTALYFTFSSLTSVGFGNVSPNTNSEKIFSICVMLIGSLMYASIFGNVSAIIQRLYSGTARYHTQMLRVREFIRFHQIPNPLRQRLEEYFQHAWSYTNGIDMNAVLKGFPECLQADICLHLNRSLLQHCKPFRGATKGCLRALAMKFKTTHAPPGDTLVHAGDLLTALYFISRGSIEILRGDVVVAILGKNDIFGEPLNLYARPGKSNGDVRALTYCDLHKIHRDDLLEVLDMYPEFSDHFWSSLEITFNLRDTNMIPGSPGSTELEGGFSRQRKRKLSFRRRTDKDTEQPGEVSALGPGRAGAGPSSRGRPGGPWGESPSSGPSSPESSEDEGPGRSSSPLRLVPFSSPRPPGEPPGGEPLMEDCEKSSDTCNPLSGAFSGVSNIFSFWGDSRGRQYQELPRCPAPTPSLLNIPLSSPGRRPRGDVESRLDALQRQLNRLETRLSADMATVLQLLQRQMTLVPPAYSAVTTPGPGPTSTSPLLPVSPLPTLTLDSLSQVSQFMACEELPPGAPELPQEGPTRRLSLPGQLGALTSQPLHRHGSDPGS
row,SMILES,"hERG current change (%, negative = inhibition) at 1uM"
1,COc1ccc(N/N=C/c2c(O)n(-c3cccc(C)c3)c(=O)[nH]c2=O)cc1,2.88%
2,CN(C)CCCN=Cc1c(O)n(CCc2ccccc2)c(=O)[nH]c1=O,7.97%
3,Cc1nc(SCC(O)CCl)c([N+](=O)[O-])[nH]1 (centres unmarked),11.2%
4,COc1ccc(N2CCN(C(=O)c3c(C)nn(-c4ccccc4)c3C)CC2)cc1,11.5%
5,CCOC(=O)c1sc2nccc(N(C)C)c2c1N=CNOC,4%
6,CC(=O)Nc1ccc(S(=O)(=O)Nc2cccc(-c3cn4c(n3)SCC4)c2)cc1,19.8%
7,COc1ccc(C(=O)c2ccc3oc(-c4ccc(OC)cc4)c(C#CCCO)c3c2)cc1,14%
8,O=S(=O)(c1ccccc1)N1CCN(C(c2ccccc2)c2ccc(OC(F)(F)F)cc2)CC1 (centres unmarked),9.37%
9,Cc1cc(NC(=O)CCC(=O)N(CC2CCCO2)C(C(=O)NC2CCCC2)c2cccnc2)no1 (centres unmarked),14.2%
10,O=C1C(NS(=O)(=O)c2cccs2)=C(N2CCN(Cc3ccccc3)CC2)C(=O)c2ccccc21,5.43%
11,CCC(CC)=NNc1cccc([N+](=O)[O-])c1,7.41%
12,O=C1c2ccccc2C(=O)N1CCC#Cc1ccc2cc(CCO)oc(=O)c2c1,12.8%
13,COc1ccc(-c2cn(-c3ccc(C)cc3C)c(=O)[nH]2)cc1OC,8.04%
14,O=C(CNC(=O)c1cccc(F)c1)N/N=C/c1cccnc1,13.5%
15,CCCCNC(=O)NNC(=O)c1ccc(F)cc1,12%
16,CCN1CCSc2ccc(C(=O)NCc3ccccc3F)cc21,4.43%
17,CCCCn1c(=O)[nH]c(=O)c2c1nc(-c1ccccc1F)n2Cc1ccccc1,8.83%
18,CCC(C(=O)OCC(=O)NC(=O)c1ccccc1OC)c1ccccc1 (centres unmarked),18.1%
19,Cc1ccc(C)c(N2CCN(S(=O)(=O)c3cccc4cccnc34)CC2)c1,0.21%
20,Cc1ccccc1SCC(=O)NCCCn1ccnc1,8.54%
21,O=C(CSc1nc2ccccc2c(=O)n1-c1ccccc1)N1CCCC1,8.39%
22,CCNC(=O)N1CCN(CCCC(c2ccc(F)cc2)c2ccc(F)cc2)CC1.Cl,-90.3%
23,CC(OC(=O)CN1C(=O)NC2(CCCC2)C1=O)C(=O)c1ccc(C(C)(C)C)cc1 (centres unmarked),-6.44%

row,SMILES,"hERG current change (%, negative = inhibition) at 1uM"
1,O=C1CC(c2ccccc2)c2cc(O)ccc2O1 (centres unmarked),11.4%
2,O=C(NCc1ccc2c(c1)OCO2)c1cc2ccccc2o1,12.8%
3,Oc1ccc(Nc2nc(Cl)nc(NCc3ccco3)n2)cc1,1.55%
4,COc1ccc(-c2cn3cccnc3n2)cc1NC(=O)c1cccs1,4.09%
5,O=C(CCC(=O)c1ccc(F)cc1)OCc1nnc(-c2ccc([N+](=O)[O-])cc2)o1,1.72%
6,CCC(Oc1ccc(Br)cc1Cl)C(=O)Nc1nnc(C2CC2)s1 (centres unmarked),10.3%
7,CCn1c(SCC(=O)Nc2nc3ccc(C)cc3s2)nc2c(c1=O)SC(C)C2 (centres unmarked),3.68%
8,COc1cccc(N2CCN(CC(=O)NC(C)c3ccccc3)CC2)c1 (centres unmarked),10%
9,O=C(O)c1nc(N2CCOCC2)nc(N2CCOCC2)n1,2.06%
10,Cn1ncc(C#N)c1NC(=O)C1CC(c2ccc(Cl)cc2)=NO1 (centres unmarked),6.73%
11,CCOC(=O)C1CCN(CC(O)COc2ccc(C(=O)CC)cc2)CC1.Cl (centres unmarked),-49.5%
12,O=c1[nH]c(=S)n(C2CC2)c(O)c1C=NCc1cccnc1,10.7%
13,CC(=O)c1cccc(NC(=O)COC(=O)c2ccccc2C)c1,6.82%
14,O=S(=O)(Nc1nc2ccccc2s1)c1ccc(Cl)nc1,-1.94%
15,COCCNC(=S)N/N=C/c1c2ccccc2cc2ccccc12,16.1%
16,O=C(CCc1nc2sc3c(c2c(=O)[nH]1)CCCC3)Nc1ccccc1Cl,5.44%
17,Cn1c(N)c(C(=O)COC(=O)c2cc(-c3ccco3)nc3ccccc23)c(=O)n(Cc2ccccc2)c1=O,5.9%
18,CSc1nc(N(C)C)nc(N(C#N)CCOC(C)=O)n1,5.11%
19,Cn1c(=O)n(C)c2cc(C(=O)c3ccccc3)ccc21,3.35%
20,COc1ccc(N2CC(NC(=O)NC(C)(C)C)CC2=O)cc1 (centres unmarked),10.1%
21,O=C(CSc1nc2ccccc2s1)N/N=C/c1ccco1,13.9%
22,COc1ccc(-c2csc(NC(=O)CN3C(=O)CCC3=O)n2)c(OC)c1,10.6%
23,CCS(=O)(=O)N1CCC(C(=O)NCCCN2CCC(Cc3ccccc3)CC2)CC1,-43.2%

row,SMILES,"hERG current change (%, negative = inhibition) at 1uM"
1,Cn1cccc1-c1cc(C(=O)N/N=C/c2cc(Br)ccc2O)[nH]n1,22.7%
2,Brc1ccc(-c2cnc(-c3cccs3)o2)cc1,2.8%
3,O=C(COc1ccc2c(c1)CCC2)N1CCN(c2ccc(F)cc2)CC1,4.48%
4,COC(=O)c1ccc2c(=O)[nH]c(CCl)nc2c1,11.4%
5,COc1cc(OC)c(CN2CCCCCCC2)cc1Br,0.256%
6,COC(=O)C(NC(=O)CNS(=O)(=O)c1ccc(Br)cc1)c1ccccc1 (centres unmarked),10.3%
7,CCc1cc2c(=O)[nH]c(CC(N)=O)nc2s1,17.4%
8,Cc1ccc(C(=O)OCC(=O)Nc2ncc(Cl)cc2Cl)cc1NC(=O)c1ccco1,-13.9%
9,COc1ccc2c(c1)c(N=O)c(O)n2C,15%
10,Fc1ccc(-n2nnc(-c3ccccc3)n2)cc1,15.7%
11,O=C(/C=C/c1ccccc1Cl)NC(=S)Nc1ccccc1C(=O)NC1CCCCC1,13.9%
12,CC(=O)NC(c1cccs1)c1cc([N+](=O)[O-])c2cccnc2c1O (centres unmarked),11.7%
13,COc1ccc(Cc2nc3ccccc3c(=O)n2N)cc1OC,16.5%
14,CCCC(=O)Nc1nnc(-c2ccc3c(c2)OCO3)s1,10.2%
15,Cc1cccc(-c2noc(-c3ccc(Cl)cc3[N+](=O)[O-])n2)c1,15.5%
16,CC(C)c1ccc(NC(=S)NNC(=O)C2CC2)cc1,16.3%
17,CC(Nc1c[nH]c(=O)[nH]c1=O)c1ccccc1 (centres unmarked),14.1%
18,Cc1cccc(NCC(=O)N/N=C/c2ccc(Br)cc2)c1,10.5%
19,O=C(C(=O)N1CCN(c2ccc([N+](=O)[O-])cc2)CC1)c1cn(CC(=O)N2CCOCC2)c2ccccc12,-1.14%
20,NC(=O)CN(c1ccccc1)C1SC(=O)N(Cc2ccccc2)C1=O (centres unmarked),5.06%
21,S=C(Nc1ccc(Cl)cc1)c1sc(N2CCCCC2)nc1N1CCOCC1,4.37%
22,O=C(O)CC1NC(=O)N(C2CCCCC2)C1=O (centres unmarked),7.4%
23,COc1ccc(/C=C(/NC(=O)c2ccccc2)C(=O)N2CCCCC2)cc1OC,10.9%

row,SMILES,"hERG current change (%, negative = inhibition) at 1uM"
1,CC(C)(C)C(=O)Nc1ccc(S(=O)(=O)N2CC3CC(C2)c2cccc(=O)n2C3)cc1 (centres unmarked),6.28%
2,CC1CCC(C(C)C)C(OP(=O)(c2ccccc2)C(O)c2ccncc2)C1 (centres unmarked),7.2%
3,CC(=O)N1CCN(Cc2cc(=O)n3cc(Cl)c(C)c(Cl)c3n2)CC1,-10.7%
4,Cc1ccccc1NC(=O)Cc1nc(COC(=O)CSc2ccccc2)cs1,6.65%
5,O=C(Nc1ccc(Br)cn1)C1CCN(S(=O)(=O)c2cccs2)CC1,-2.33%
6,C=C(C)Cn1c(N(CCO)Cc2ccccc2)nc2c1c(=O)[nH]c(=O)n2C,7.92%
7,O=C(N/N=C\c1ccc(CNS(=O)(=O)c2ccc(Cl)cc2)o1)C(=O)Nc1ccc(Oc2ccccc2)cc1,14.5%
8,CCOC(=O)c1cccc(NC2c3ccccc3C(=O)N2Cc2ccco2)c1 (centres unmarked),17.9%
9,COc1ccc(-c2cc(C(F)(F)F)n3ncc(C(=O)NCc4ccco4)c3n2)cc1,7.09%
10,Nc1ccc(S(=O)(=O)c2ccc(N)c(N)c2)cc1,15.8%
11,Cc1nn(C)cc1C(C(=O)NC1CCCCC1)N(C(=O)Cn1nnc2ccccc21)c1ccc(F)cc1 (centres unmarked),-2.79%
12,CC(C)c1cccc(C(C)C)c1NC(=O)CN(C)C1CCS(=O)(=O)C1 (centres unmarked),-6.21%
13,Nc1ccc(-c2ccc(N)cc2C(F)(F)F)c(C(F)(F)F)c1,-1.33%
14,CC/C(=N\NC(=O)COc1ccc(Br)cc1)c1ccc(OC)c(OC)c1,13.5%
15,O=c1c2ccccc2n(Cc2cccc(F)c2)c(=O)n1C1CCCC1,5.44%
16,Cc1cccc(N(CC(=O)NC2CCCC2)C(=O)CS(=O)CC(=O)Nc2ccc3c(c2)OCO3)c1C (centres unmarked),14.8%
17,CCC(NC(=O)CN1CCN(C(=O)c2cccs2)CC1)c1ccc(C)cc1 (centres unmarked),-3.24%
18,COc1cc(C(=O)NC(=S)N2C[C@H]3C[C@H](C2)c2cccc(=O)n2C3)cc(OC)c1OC,3.29%
19,CCCN1C2CCCC1CC(NC(=O)c1ccc(F)cc1)C2 (centres unmarked),-29.7%
20,COc1ccc2nc(C)cc(N/N=C/c3ccc(F)cc3)c2c1,6.3%
